Values of other authors as cited in publication PMC8236845.
Read-outs that look alike come from different tables or passages of the source. Numbered stars: 1 amine (or outer) side, 2 acyl side, 3 side chain; on linkers, the order of the positions; unused ones are H or OH. Bridge positions count the residues as written; N and C are the ends. Square brackets hold non-standard residues; d marks the D form. Peptide text beside a SMILES is read from it. * marks the point of attachment. pTerphenylCO(4''-OnC5H11) = CCCCCOc1ccc(-c2ccc(-c3ccc(C(=O)*)cc3)cc2)cc1; Orn(4R-OH,5R-OH) = O=C([C@H](C[C@@H](O)[C@@H](O)N[*:3])N[*:1])[*:2]; hTyr(3S-OH,4S-OH) = N[C@H](C(=O)O)[C@H](O)[C@@H](O)c1ccc(O)cc1; Pro(3S-OH,4S-Me) = C[C@H]1CN[C@H](C(=O)O)[C@H]1O; Hyp = O=C(O)[C@@H]1C[C@@H](O)CN1

What was measured:
[1] = in vivo, cited from earlier work; for Elimination T 1/2: human
[2] = bovine, in vivo, cited from earlier work
[3] = rat, in vivo, iv, 10 mg/kg; cited from earlier work

COc1cc([C@@H]2c3cc4c(cc3[C@H](O)[C@H]3COC(=O)[C@@H]23)OCO4)cc(OC)c1OC [Picropodophyllin]
Elimination T 1/2 ([1]; po, 520 mg): 2 h

CO[C@H]1C[C@H](O[C@H]2[C@H](C)O[C@@H](O[C@@H]3/C(C)=C/C[C@@H]4C[C@@H](C[C@]5(C=C[C@H](C)[C@@H](C6CCCCC6)O5)O4)OC(=O)[C@@H]4C=C(C)[C@@H](O)[C@H]5OC/C(=C\C=C\[C@@H]3C)[C@]54O)C[C@@H]2OC)O[C@@H](C)[C@@H]1O [Doramectin]
Elimination T 1/2 ([2]; topical or ocular, 500 ug/kg): 240 h | peak plasma concentration [2]: 0.014 µM

CC(=O)O[C@@]12CO[C@@H]1C[C@H](O)[C@@]1(C)C(=O)[C@H](O)C3=C(C)[C@@H](OC(=O)[C@H](O)[C@@H](NC(=O)OC(C)(C)C)c4ccccc4)C[C@@](O)([C@@H](OC(=O)c4ccccc4)[C@H]21)C3(C)C [Docetaxel]
Elimination T 1/2 ([1]; iv): 25.4 h

CCCCCOc1ccc(-c2ccc(-c3ccc(C(=O)N[C@H]4C[C@@H](O)[C@@H](O)NC(=O)[C@@H]5[C@@H](O)[C@@H](C)CN5C(=O)[C@H]([C@@H](C)O)NC(=O)[C@H]([C@H](O)[C@@H](O)c5ccc(O)cc5)NC(=O)[C@@H]5C[C@@H](O)CN5C(=O)[C@H]([C@@H](C)O)NC4=O)cc3)cc2)cc1 [Anidulafungin] ({pTerphenylCO(4''-OnC5H11)}-[Orn(4R-OH,5R-OH)]T[Hyp][hTyr(3S-OH,4S-OH)]T[Pro(3S-OH,4S-Me)]; lactam 1-C)
Elimination T 1/2 ([1]; iv): 27 h

CC[C@H](C)[C@@H]1NC(=O)[C@H](Cc2ccc(O)cc2)NC(=O)[C@@H](N)CSSC[C@@H](C(=O)N2CCC[C@H]2C(=O)N[C@@H](CC(C)C)C(=O)NCC(N)=O)NC(=O)[C@H](CC(N)=O)NC(=O)[C@H](CCC(N)=O)NC1=O [Oxytocin]
peak plasma concentration [1]: 0.005 µM

Cc1cn(-c2cc(NC(=O)c3ccc(C)c(Nc4nccc(-c5cccnc5)n4)c3)cc(C(F)(F)F)c2)cn1 [Nilotinib AMN-107, Nilotinib]
Elimination T 1/2 ([1]; po, 300 mg): 16 h

C[C@]12CC[C@@H]3c4ccc(OC(=O)c5ccccc5)cc4CC[C@H]3[C@@H]1CC[C@@H]2O [Estradiol benzoate]
Elimination T 1/2 ([1]; im, 5 mg): 72 h

CC[C@@]1(O)C(=O)OCc2c1cc1n(c2=O)Cc2cc3cc(O)ccc3nc2-1 [Hydroxycamptothecin]
Elimination T 1/2 [3]: 7.13 h
